Experimental data taken from US20260207762A1.

Target: human PD-1 expressed on cells (human) (UniProt Q15116)
Assay: flow cytometry, CHO-S hPD-1 cells

UniProt Q15116, sequence (Q15116 25-288): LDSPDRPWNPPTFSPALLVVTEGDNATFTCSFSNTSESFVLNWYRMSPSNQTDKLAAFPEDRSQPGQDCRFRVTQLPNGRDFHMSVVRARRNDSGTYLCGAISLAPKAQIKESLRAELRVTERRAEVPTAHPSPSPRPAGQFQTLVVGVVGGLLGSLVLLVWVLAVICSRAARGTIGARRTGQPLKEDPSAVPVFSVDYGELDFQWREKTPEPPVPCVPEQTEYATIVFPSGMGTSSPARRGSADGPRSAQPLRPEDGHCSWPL

B1: z8-XVT458 (antibody, part only; not given: light chain variant, part only)
heavy: QVQLVQSGAEVKKPGASVKVSCKASGYTFTNFYIHWVRQAPGQGLEWMGSIYPNYGDTAYNQKFKDRATMTVDKSTSTAYMELRSLRSDDTAVYYCARGYSYAMDYWGQGTTVTVSS[not shown - human IgG1 constant region]
Top MFI: 0 MFI
